In the supplement of paper PMC4604168 (melanoma cell lines):
This is one part of the list. Many values rest on one well or one pass, so single values are uncertain.

Experiments:
Experiment in all cases: cell count relative to DMSO control; melanoma cells; higher = more viable cells
Settings in all cases: library dose: standard library concentration; 72 h
[1] = system: 501Mel
[2] = system: A101D
[3] = system: A2058
[4] = system: A375
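Also: cells treated in 1,536-well plates, then fixed and DAPI-stained, with nuclei counted from automated high-throughput microscope images.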

Compound	cell count [1] [%]	cell count [2] [%]	cell count [3] [%]	cell count [4] [%]
C[As](C)SC[C@H](NC(=O)CC[C@H](N)C(=O)O)C(=O)NCC(=O)O [Darinaparsin] + COC(=O)c1sccc1S(=O)(=O)Nc1ccc(Nc2ccccc2)cc1OC [GSK0660] (first compound 2 µM, partner dose 5 µM)	76	85.7	82.5	84.8
N.N.[Cl][Pt][Cl] [cisplatin] + COc1ccc2c(c1)CCC1C2CCC2(C)C(NCCCCCCN3C(=O)C=CC3=O)CCC12 [U73122] (first compound 8 µM, partner dose 2 µM)	75.4	33.3	43.1	54.9
Cn1cc(C2=C(c3cn(C4CCN(Cc5ccccn5)CC4)c4ccccc34)C(=O)NC2=O)c2ccccc21 [Enzastaurin] + N#Cc1c(O)c2c(-c3ccc(-c4ccccc4O)cc3)csc2[nH]c1=O [A769662] (first compound 4 µM, partner dose 10 µM)	59.6	55.7	79.3	129
C[C@]12O[C@H](C[C@]1(O)CO)n1c3ccccc3c3c4c(c5c6ccccc6n2c5c31)CNC4=O [Lestaurtinib] + O=S(=O)(c1ccccc1)N(CC(F)(F)F)c1ccc(C(O)(C(F)(F)F)C(F)(F)F)cc1 [T0901317] (first compound 0.02 µM, partner dose 7 µM)	66	85.1	117	117
Cn1cc(C2=C(c3cn(C4CCN(Cc5ccccn5)CC4)c4ccccc34)C(=O)NC2=O)c2ccccc21 [Enzastaurin] + C/C(O)=C(\C#N)C(=O)Nc1cc(Br)ccc1Br [LFM-A13] (first compound 4 µM, partner dose 10 µM)	102	34.8	86.4	90.7
N.N.[Cl][Pt][Cl] [cisplatin] + Oc1nc(-c2ccc(C(F)(F)F)cc2)nc2c1CSCC2 [XAV939] (first compound 8 µM, partner dose 10 µM)	78.8	43.9	61.9	72.5
N.N.[Cl][Pt][Cl] [cisplatin] + CCc1ccc(CCOc2ccc(CC3SC(=O)NC3=O)cc2)nc1 [pioglitazone] (first compound 8 µM, partner dose 10 µM)	49.2	67.4	103	105
N.N.[Cl][Pt][Cl] [cisplatin] + COc1cc(N2CCC(N3CCN(C)CC3)CC2)ccc1Nc1ncc(Cl)c(Nc2ccccc2S(=O)(=O)C(C)C)n1 [NVP-TAE684] (first compound 8 µM, partner dose 0.4 µM)	85.4	81.1	77.5	92
C[C@]12O[C@H](C[C@]1(O)CO)n1c3ccccc3c3c4c(c5c6ccccc6n2c5c31)CNC4=O [Lestaurtinib] + COc1ccc2c(c1)CCC1C2CCC2(C)C(NCCCCCCN3C(=O)C=CC3=O)CCC12 [U73122] (first compound 0.02 µM, partner dose 2 µM)	78.7	48	77.7	86.8
C[As](C)SC[C@H](NC(=O)CC[C@H](N)C(=O)O)C(=O)NCC(=O)O [Darinaparsin] + CCCCCCCCCCCC1=C(O)C(=O)C=C(O)C1=O [Embelin] (first compound 2 µM, partner dose 6 µM)	84.4	89.4	96.6	104
Cn1cc(C2=C(c3cn(C4CCN(Cc5ccccn5)CC4)c4ccccc34)C(=O)NC2=O)c2ccccc21 [Enzastaurin] + CCN(CC)CCCCNc1ncc2cc(-c3cc(OC)cc(OC)c3)c(NC(=O)NC(C)(C)C)nc2n1 [PD173074] (first compound 4 µM, partner dose 0.5 µM)	74.3	101	102	126
N.N.[Cl][Pt][Cl] [cisplatin] + COC(=O)c1sccc1S(=O)(=O)Nc1ccc(Nc2ccccc2)cc1OC [GSK0660] (first compound 8 µM, partner dose 5 µM)	87.9	74.3	127	103
N.N.[Cl][Pt][Cl] [cisplatin] + O=S(=O)(c1ccccc1)N(CC(F)(F)F)c1ccc(C(O)(C(F)(F)F)C(F)(F)F)cc1 [T0901317] (first compound 8 µM, partner dose 7 µM)	77.3	68.9	112	97.2
C[C@]12O[C@H](C[C@]1(O)CO)n1c3ccccc3c3c4c(c5c6ccccc6n2c5c31)CNC4=O [Lestaurtinib] + Cc1cc([N+](=O)[O-])ccc1NS(=O)(=O)c1cc(Cl)ccc1Cl [FH535] (first compound 0.02 µM, partner dose 5 µM)	52.3	67.7	69.4	91.3
